The RNAGym collection of RNA variant scans (doi:10.7554/elife.90254)
The source gives no read counts; variants with many changes may rest on few reads.

B1: LINE1-mini (parent)
chain: GGCAGAGCUCAACACAGCGUGGCAAAGUGGCUGUGGCUAGACUGCC

Variants of: B1
Assay: self-cleavage, relative activity (ratio to wild type); higher = more cleavage; in vitro, sequencing; the parent is a self-cleaving ribozyme
In the case of C3G A4U G44U, the self-cleavage is reported as 0.12.
C3G A6C A11G G17U G40A gave a self-cleavage of 0.02.
Variant C3G A6C A12C has a self-cleavage of 0.06.
C3G A6C A16C G27C C45U showed a self-cleavage of 0.02.
C3G A6C C13U A25C showed a self-cleavage of 0.12.
With C3G A6G A24C G35C the self-cleavage was 0.03.
C3G A6G A25C C31U G36A G44U gave a self-cleavage of 0.07.
C3G A6G C8G showed a self-cleavage of 0.03.
C3G A6G C8U gave a self-cleavage of 0.48.
With C3G A6G C8U C31U the self-cleavage was 0.02.
Work on C3G A6G C10U C13G C18A yielded a self-cleavage of 0.02.
With C3G A6G C23A U34A the self-cleavage was 0.03.
Work on C3G A6G G17U A25C U38A C42G yielded a self-cleavage of 0.08.
Variant C3G A6G G30A has a self-cleavage of 0.51.
Variant C3G A6G U34C has a self-cleavage of 0.06.
C3G A6G U34G showed a self-cleavage of 0.03.
C3G A6U A11C C45U C46G showed a self-cleavage of 0.06.
With C3G A6U A11U the self-cleavage was 0.03.
Variant C3G A6U A12U A14G C15A C18G C31A U32G has a self-cleavage of 0.02.
Variant C3G A6U A14G C37G has a self-cleavage of 0.19.
For C3G A6U C15G G19U, the self-cleavage was 0.05.
C3G A6U C31A showed a self-cleavage of 0.12.
Variant C3G A6U G7C U20A G21C A25G has a self-cleavage of 0.04.
For C3G A6U G17U U34C G40U, the self-cleavage was 0.11.
For C3G A6U U9A C18A, the self-cleavage was 0.04.
In the case of C3G A6U U20A G21U G22A A25G C42A, the self-cleavage is reported as 0.2.
In the case of C3G A6U U20A G29A U32A C46U, the self-cleavage is reported as 0.04.
With C3G A6U U20A U28C the self-cleavage was 0.13.
With C3G A6U U20C G22C A24G G33C A39G the self-cleavage was 0.11.
C3G A11C C13A A26G G30U G36U G40A showed a self-cleavage of 0.01.
With C3G A11C C23G C46U the self-cleavage was 0.01.
In the case of C3G A11C G19U A26U C46U, the self-cleavage is reported as 0.02.
With C3G A11C G30A the self-cleavage was 0.06.
With C3G A11C U34A C42A the self-cleavage was 0.02.
Variant C3G A11G A25C G36A has a self-cleavage of 0.12.
C3G A11G C13U gave a self-cleavage of 0.03.
Work on C3G A11G C18G G36U C46U yielded a self-cleavage of 0.01.
In the case of C3G A11G G33A, the self-cleavage is reported as 0.06.
In the case of C3G A11U A14C C18A C37A, the self-cleavage is reported as 0.02.
Variant C3G A11U C13G has a self-cleavage of 0.02.
Variant C3G A11U C23U G30A C31A A41U C42U G44C has a self-cleavage of 0.
For C3G A11U G27C G29A G30U G40C, the self-cleavage was 0.01.
With C3G A11U G33U U34G A39U the self-cleavage was 0.01.
Variant C3G A11U G35U C37A has a self-cleavage of 0.01.
Work on C3G A11U U28G U32A U34A A41G yielded a self-cleavage of 0.01.
In the case of C3G A12C A26U U28C, the self-cleavage is reported as 0.03.
C3G A12C C37A A39G G44C gave a self-cleavage of 0.01.
C3G A12C G35C showed a self-cleavage of 0.
With C3G A12G C13U the self-cleavage was 0.28.
Variant C3G A12G C15G C23G U28A has a self-cleavage of 0.01.
Variant C3G A12G C18U has a self-cleavage of 0.13.
In the case of C3G A12G G22A U38A, the self-cleavage is reported as 0.05.
C3G A12G G30U showed a self-cleavage of 0.34.
For C3G A12U A25C G29A G30U C31A C37U, the self-cleavage was 0.05.
C3G A12U G21U G30C showed a self-cleavage of 0.18.
In the case of C3G A12U G30U, the self-cleavage is reported as 0.04.
With C3G A14C A26U the self-cleavage was 0.1.
In the case of C3G A14C C42U, the self-cleavage is reported as 0.06.
C3G A14C U34G showed a self-cleavage of 0.03.
In the case of C3G A14C U38A, the self-cleavage is reported as 0.04.
Variant C3G A14G A25U C37A has a self-cleavage of 0.11.
Work on C3G A14G G19A A26C yielded a self-cleavage of 0.15.
With C3G A14G G22C the self-cleavage was 0.18.
With C3G A14G G36C the self-cleavage was 0.08.
C3G A14G G40C showed a self-cleavage of 0.02.
Variant C3G A14U A16C A25G has a self-cleavage of 0.2.
In the case of C3G A14U A26U U43A, the self-cleavage is reported as 0.53.
Work on C3G A14U C46U yielded a self-cleavage of 0.17.
C3G A14U G17A G22A C31U showed a self-cleavage of 0.04.
In the case of C3G A14U G19U G21A A26G, the self-cleavage is reported as 0.24.
In the case of C3G A14U G30C, the self-cleavage is reported as 0.05.
C3G A14U U32A showed a self-cleavage of 0.12.
C3G A16C C18G showed a self-cleavage of 0.1.
With C3G A16C C23U G33A the self-cleavage was 0.03.
C3G A16C G33C gave a self-cleavage of 0.07.
With C3G A16G A25C C37U C42U U43G the self-cleavage was 0.01.
C3G A16G C45G gave a self-cleavage of 0.06.
C3G A16U A39C gave a self-cleavage of 0.
Variant C3G A16U U20A G21U G27A U32G G44C C46A has a self-cleavage of 0.02.
For C3G A24C A26C G30C A41C C45G, the self-cleavage was 0.05.
In the case of C3G A24G A25G, the self-cleavage is reported as 0.17.
Work on C3G A24G A25G C42A yielded a self-cleavage of 0.08.
C3G A24G A25U G30C U32C A39G showed a self-cleavage of 0.25.
C3G A24G C31G G33C gave a self-cleavage of 0.08.
C3G A24G G27C C45G gave a self-cleavage of 0.03.
C3G A24G G30C G40C A41U C42A gave a self-cleavage of 0.07.
C3G A24G U28G showed a self-cleavage of 0.3.
In the case of C3G A24U G29U, the self-cleavage is reported as 0.34.
C3G A24U G29U G40A gave a self-cleavage of 0.1.
For C3G A25C A26U C37G, the self-cleavage was 0.45.
With C3G A25C U43C the self-cleavage was 0.06.
For C3G A25G G40C, the self-cleavage was 0.05.
Variant C3G A25U C45A has a self-cleavage of 0.14.
Work on C3G A26C C31A C37A A39C yielded a self-cleavage of 0.17.
Variant C3G A26C G30U has a self-cleavage of 0.25.
For C3G A26G C37U, the self-cleavage was 0.01.
In the case of C3G A26G G35A G40U, the self-cleavage is reported as 0.02.
Variant C3G A26G U34A has a self-cleavage of 0.3.
For C3G A41U C46U, the self-cleavage was 0.32.
In the case of C3G C8A A39G A41C C45A, the self-cleavage is reported as 0.06.
In the case of C3G C8A C13G G17U A25G U28G U32C U38C, the self-cleavage is reported as 0.68.
With C3G C8A C15A G19A A24C A26U the self-cleavage was 0.54.
With C3G C8A C18G G35C the self-cleavage was 0.36.
Work on C3G C8A G17C U32A yielded a self-cleavage of 0.02.
C3G C8A G21A G36A G44A showed a self-cleavage of 0.12.
Variant C3G C8A U9A has a self-cleavage of 0.4.
Work on C3G C8A U32A C42G yielded a self-cleavage of 0.16.
C3G C8G A11U G17U U20G A24G U32G G35C gave a self-cleavage of 0.01.
C3G C8G A12G C13A C15G gave a self-cleavage of 0.03.
In the case of C3G C8G A12U A41U, the self-cleavage is reported as 0.05.
In the case of C3G C8G G17C G29U G33A C37G, the self-cleavage is reported as 0.09.
In the case of C3G C8G G27C G35A C37G, the self-cleavage is reported as 0.2.
C3G C8U A11C C37U showed a self-cleavage of 0.31.
With C3G C8U A24G A26G G35U C46G the self-cleavage was 0.19.
Variant C3G C8U C10A G29C has a self-cleavage of 0.01.
Work on C3G C8U C10U A16G yielded a self-cleavage of 0.02.
In the case of C3G C8U C15A C18A, the self-cleavage is reported as 0.15.
Work on C3G C8U C23U A26U A39G yielded a self-cleavage of 0.02.
With C3G C8U C37G the self-cleavage was 0.96.
C3G C8U G19C showed a self-cleavage of 0.05.
C3G C8U U43C showed a self-cleavage of 0.05.
Work on C3G C10A A12C G27U yielded a self-cleavage of 0.05.
With C3G C10A A14U G27U the self-cleavage was 0.04.
With C3G C10A A41U the self-cleavage was 0.06.
With C3G C10A C13U G27A U38A A41U the self-cleavage was 0.01.
With C3G C10A C18A the self-cleavage was 0.02.
With C3G C10A C46G the self-cleavage was 0.04.
With C3G C10A G17C C31G the self-cleavage was 0.01.
In the case of C3G C10A G19U A39U, the self-cleavage is reported as 0.02.
With C3G C10A G36C C42G C45U the self-cleavage was 0.
In the case of C3G C10A U38A A41C, the self-cleavage is reported as 0.01.
In the case of C3G C10G A12G, the self-cleavage is reported as 0.03.
With C3G C10G C13G G17U A24U the self-cleavage was 0.01.
Work on C3G C10U A16U C31G yielded a self-cleavage of 0.02.
Variant C3G C10U A39G has a self-cleavage of 0.03.
In the case of C3G C10U C13A, the self-cleavage is reported as 0.19.
With C3G C10U C15U U28A G33A the self-cleavage was 0.11.
For C3G C10U C18A A24C U28C A39G C45U, the self-cleavage was 0.02.
C3G C10U G17C U20G C31G U38G A39G U43A showed a self-cleavage of 0.01.
In the case of C3G C10U U20G G35A, the self-cleavage is reported as 0.07.
With C3G C13A A26C C46A the self-cleavage was 0.05.
C3G C13A A26C G29C G44U gave a self-cleavage of 0.11.
For C3G C13A A26G, the self-cleavage was 0.05.
Work on C3G C13A C15U A16C A25C yielded a self-cleavage of 0.12.
Variant C3G C13A C23U G33C has a self-cleavage of 0.13.
For C3G C13A G22A G40U, the self-cleavage was 0.06.
In the case of C3G C13A U20A, the self-cleavage is reported as 0.07.
In the case of C3G C13A U32A A41G, the self-cleavage is reported as 0.14.
Work on C3G C13A U34A U43A yielded a self-cleavage of 0.17.
In the case of C3G C13A U38G A41U C45U C46A, the self-cleavage is reported as 0.04.
With C3G C13G A14G G35U the self-cleavage was 0.05.
Variant C3G C13G A24C G29C has a self-cleavage of 0.06.
Variant C3G C13G C37G has a self-cleavage of 0.07.
C3G C13G C37U showed a self-cleavage of 0.28.
C3G C13G C46G gave a self-cleavage of 0.11.
C3G C13G G27C U28G G30U G36A G44A gave a self-cleavage of 0.08.
Variant C3G C13G U28A has a self-cleavage of 0.65.
C3G C13U A14G G22U A24U C37G gave a self-cleavage of 0.36.
With C3G C13U A16C U28A G35C G40A G44U the self-cleavage was 0.05.
In the case of C3G C13U A24G, the self-cleavage is reported as 0.1.
With C3G C13U A26U the self-cleavage was 0.1.
With C3G C13U C15U G21U the self-cleavage was 0.21.
In the case of C3G C13U G17U U28C, the self-cleavage is reported as 0.12.
With C3G C13U G19C G30C the self-cleavage was 0.39.
Variant C3G C13U G29A U43C G44U has a self-cleavage of 0.08.
With C3G C15A G22C C46G the self-cleavage was 0.1.
For C3G C15A G27A, the self-cleavage was 0.31.
